According to the RNAGym collection of RNA variant scans (doi:10.1101/gad.245936.114):
Variants at the floor of the assay are shown more often than the library holds them.

B1: tRNA (parent)
chain: CUCUCGGUAGCCAAGUUGGUUUAAGGCGCAAGACUUUAAUUUAUCACUACGAAAUCUUGAGAUCGGGCGUUCGACUCGCCCCCGGGAGAUUUUUUCCUCGAGCAA

Variants of: B1
Test: nonsense suppression (GFP-seq) (ratio to wild type); higher = more function; SUP4oc tRNA, yeast GFP reporter sort-seq
Outline: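 Each variant's nonsense suppression (GFPSEQ) is a cell-share-weighted bin median GFP/RFP relative to the unmutated parent tRNA. Yeast with genome-integrated tRNA variants from a ~3% random-mutation library, a galactose-driven GFP ochre reporter and RFP were grown in raffinose/galactose medium with 80 mg/L adenine, then sorted into GFP/RFP bins for Illumina sequencing. Variants needed ≥100 reads and ≥30 cells.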

Nonsense suppression, ≤ 0.026:
CUCUCGAUAGCCAAGUUGGUUUAAGGUGCAAGACUUUAAUUUAUCACUACGAAAUCUUGAGAUCGGGCGUUCGACUCGCCCCCGGGAGAUUUUUUCCUCGAGCAA
CUCUCGAUAGCCAAGUUGGUUUAAGGCGCAAGACUUUAAUUUAUCACUACGAAAUCUUGAGAUCGGGCGAUCGACUCGCCCCCGGGAGAUUUUUUCCUCGAGCAA
CUCUCGAUAGCCAAGUUGGUUUAAGGCGCAAGACUUUAAUUUAUCACUACGAAAUCUUGAGAUCGAGCGUUCGACUCGCCCCCGGGAGGUUUUUUCCUCGAGCAA
CUCUCGAUAGCCAAGUUGGUUUAAGGCGCAAGAAUUUAAUUUAUCACUACGAAAUCUUGAGAUCGGGCGUUCGACUCGCCCCCGGGAGAUUUUUUCCUCGAGCAA
CUCUCGAUAGCCAAGUUGGUUUAAAGCGCAAGCCUUUAAUUUAUCACUACGAAAUCUUGAGAUCGGGCGUUCGACUCGCCCCCGGGAGUUUUUUUCCUCGAGCAA
CUCUCGAUAGCCAAGUUGGUUUAAGGCGCAAGACCUUAAUUUAUCACUACGAAGUCUUGAGAGCGGGCGUACGACUCGCCCCCGGGAGAUUUUUUCCUCGAGCAA
CUCUCGAUAGCCAAGUUGGUUUAAAGCGCAAGACUUUAAUUUAUCACUACGAAAUCUUGAGACCGGGCGUUCGACUCGCCCCCGGGAGAUUUUUUCCUCGAGCAA
CUCUCGAUAGCCAAGUUGGUUUAAGGCGCAAAACUUUAAUUUAUCACUACGAAAUCUUGAGAUCGGGCGUUCGACUCGCCCCCGGGAGAUUUUUUCCUCGAGCAA
CUCUCGAUAGCCAAGUUGGUUUAAGGCGCAAGACUUUAAUUUAUCACUACGAAAUCUUGAGACCGGGCGUUCGACCCGCCCCCGGGAGAUUUUUUCCUCGAGCAA
CUCUCGAUAGCCAAGUUGGUUUAAGGCGCAAGACUUUAAUUUAUCACUACGAAAUCUUGAGAUCGGGCGUUCGACUCGCCCCCGGUAGAUUUUUUCCUCGAGCAA
CUCUCGAUAGCCAAGUCGGUUUAGGGCGCAAUACUUUAAUUUAUCACUACGAAAUCUUGAGAUCGGGCGUCCGACUCGCCCCCGGGUGAUUUUUUCCUCGAGCAA
CUCUCGAUAGCCAAGUUGGUUUAAGGCGCAAGACUUUAAUUUAUCACUACGAAAUCUUGAGAUCGGGCGUUCGACUCGCCCCGGGGAGAUUUUUUCCUCGAGCAA
CUCUCGAUAGCCAAGUUGUUUUAAGGCGCAAGACUUUAAUUUAUCACUACGAAAUCUUGAGAUCGGGCGUUCGACUCGCCCCCGGGAGAUUUUUUCCUCGAGCAA
CUCUCGAUAGCCAAGUUGGUUUAAGGCGCAAGACUUUAAUUUAUCACUACGAAAUCUUGAGAACGGGCGUUCGACUCGCCCCCGGGGGAUUUUUUCCUCGAGCAA
CUCUCGAUACCCAAGUUGGUUUAAGGCGCAAGACUUUAAUUUAUCACUACGAAAUCUUGAGAUCGGGCGUUCAACUCGCCCCCGGGAGAUUUUUUCCUCGAGCAA
CUCUCGAUAGCCAAGUUGGUUUAAGGCGCAAGACUUUAAUUUAUCACUACGAAAUCUUGAGAUCGGGCGUUCGACCCGCCCCCGGGAUAUUUUUUCCUCGAGCAA
CUCUCGAUAGCCAAGUUGGUUUAAGGCGAAAGUCUUUAAUUUAUCACUACGAAAUCUUGAGAUCGGGCGUUCGACUCGCCCCCGGGAGAUUUUUUCCUCGAGCAA
CUCUCGAUAGCCAAGUUGGUUUAAGGCGCAAGACUUUAAUUUAUCACUACGAAAUCUUGAGAUCGGGCGUUCGACUCGCCCCCGGAACAUUUUUUCCUCGAGCAA
CUCUCGAUAGCCAAGUUGGUUUAAGGCGCAAGACUUUAAUUUAUCACUACGAAAUCUUGAGAUCGGGCGUUCGAAUCGCCCCCGGGAGAUUUUUUCCUCGAGCAA
CUCUCGAUAGCCAAGUUGGUUUAAGGCCCAAGACUUUAAUUUAUCACUACGAAAUCUUGAGACCGGGCGUUCGACUCGCCCCCGGGAGAUUUUUUCCUCGAGCAA
CUCUCGAUAGCCAAGUUGGUUUAAGGCGCAAAACUUUAAUUUAUCACUACGAAAUCUUGAGAUCGGGCGUUCGAGUCGCCCCCGGGAGAUUUUUUCCUCGAGCAA
CUCUCGAUAGCCAAGUUGGUUUAAGGCGCAAGACUUUAAUUUAUCACUACGAAAUCUUAAGAUCGGGCGUGCAACUCGCCCCCAUGAGAUUUUUUCCUCGAGCAA
CUCUCGAUAUCCAAGUUGGUUUAAGGCGCAAGACUUUAAUUUAUCACUACGAAAUCUUGACAUCGGGCGUUCCACUCGCCCCCGGGAGAUUUUUUCCUCGAGCAA
CUCUCGAUAGCCAAGCUGGCUUAAGGCGCAAGACUUUAAUUUAUCACUACGAAAUCAUUUAAUCGGGCGUUCGACUCGCCCCCGUGAGAUUUUUUCCUCGAGCAA
CUCUCGAUAGCCAAGUUGGUUUAAGGCGCAAGACUUUAAUUUAUCACUACGAAAUCGUGAGAUCGGGCGUUCGACUCGCCCCCGGGAGAUUUUUUCCUCGAGCAA
CUCUCGAUAGCCAAGUUGGUUUAAGUCGCAAGACUUUAAUUUAUCACUACGAAAUAUUGAGAUCGGGCGUUCGACUCGCCCCCGGGAGAUUUUUUCCUCGAGCAA
CUCUCGAUAGCCAAGUUGGUUUAAGGCGCAAGACCUUAAUUUAUCACUACGAAAUCUUGAGAUCGCACGUUCGACUCGCCCCCGGGAGAUUUUUUCCUCGAGCAA
CUCUCGAUAGCCAAGUUGGUUUAAGGCGCAAGACUUUAAUUUAUCACUACGAAAUCUUGAGAUCGGGCAUUCGACUCGCCCCCGGGAGAUUUUUUCCUCGAGCAA
CUCUCGAUAGCCAAGUUGGUUUAAGGCGCAAGACUUUAAUUUAUCACUACGAAAUCUUGAAAUCGGGCGUUCGACUCGCCCCCGGGGGAUUUUUUCCUCGAGCAA
CUCUCGAUAGCCAAGUUGGUUUAAGGCGCAAGACUUUAAUUUAUCACUACGAAAUCUGGAGAUCGGGCGGUCGACUCGCCCCCGGGAGAUUUUUUCCUCGAGCAA
CUCUCGAUAGCCAAUUUGGUUUAAGGCGCAAGAUUUUAAUUUAUCACUACGAAAUCUUGAGAUCGGGCGUUCGACUCGCCCCCCGGAGAUUUUUUCCUCGAGCAA
CUCUCGAUAGCCAAGUUGGAUUAAGGCGCAAGACUUUAAUUUAUCACUACGAAAUCUUGAGAUCGGGCGUUGGACUCGCCCCCGGGAGAUUUUUUCCUCGAGCAA
CUCUCGAUAGCCAAGUUUGUUUAAGGCGCAAGAAUUUAAUUUAUCACUACGAAAUCUUGAUAUCAGGCGUUUGACUCGCCCCCGGGAGAUUUUUUCCUCGAGCAA
CUCUCGAUAGCCAAGUUGGUUUAAGGCGGAAGACUUUAAUUUAUCACUACGAAAUCUUGAGAUCGGGCGUUCGACUCGCCCCCGGGAGAUUUUUUCCUCGAGCAA
CUCUCGAUAGCCAAGUUGGUUUAAGGCGAAAGACUUUAAUUUAUCACUACGAAAUCUUGAGAUCGGGCGUUCGACUCGCCCCCGGGAGAUUUUUUCCUCGAGCAA
CUCUCGAUAGCCAAGUUGGUUUAAGGCGCAAGACUUUAAUUUAUCACUACGAAAUCUUGAGAUCUGGCGUUCGACUCGCCCCCGGGAGAUUUUUUCCUCGAGCAA
CUCUCGAUAGCCAAGUUGGUUUAAGGCGCAAGACUUUAAUUUAUCACUACGAAAUCUUGAGAACGGGCGUUCGACUCGCCCCCGGGAGCUUUUUUCCUCGAGCAA
CUCUCGAUAGCCAAUUUGGUUUAAGGCGCAAGACUUUAAUUUAUCACUACGAAAUCUUGAGAUCGGGCCUUCGACUCGGCCCCGGGAGAUUUUUUCCUCGAGCAA
CUCUCGAUAGCCAAGUUGGGUUAAGACGCAAGACUUUAAUUUAUCACUACGAAAUCUUGAGAUCGGGCGUUCGACUCGCCCCCGGGAGAUUUUUUCCUCGAGCAA
CUCUCGAUAGCCAAGUUGGUUUAAGGCGCAAGACUUUAAUUUAUCACUACGAAAUCUUGAAAUCGGGCGUUCGACUCGCCCCCGGGAGAUUUUUUCCUCGAGCAA
CUCUCGAUAUCCAAGUUGGAUUAAGGCGCAAGACGUUAAUUUAUCACUACGAAAUCGUGAGACCGGGCGUUCGACUCGCCCCCGGGAGAUUUUUUCCUCGAGCAA
CUCUCGAUAGCCAAGUUGGUUUAAGGCGCAAGACUUUAAUUUAUCACUACGAAAUCUUGAGAACGGGCGUUCGACUCGCCCCCGGGAGAUUUUUUCCUCGAGCAA
CUCUCGAUAGCCAAGUUGGUUUAAGGCGCAAGACUUUAAUUUAUCACUACGAAAUCUUUAGAUCGGGCGUUCGACUCGCCCCCGGGAGAUUUUUUCCUCGAGCAA
CUCUCGAUAGCCAAGUUGGUUUAAGGCGCAAGACUUUAAUUUAUCACUACGAAAUCUUCAGAUCGGGCGUUCGACUCGCCCCCGGGAGAUUUUUUCCUCGAGCAA
CUCUCGAUAGCCAAGUUGGUUUAAUGCGCAAGACCUUAAUUUAUCACUACGAAAUCUUGAGAUCGGGCGUUCGACUCGCCCCCGGGAGAUUUUUUCCUCGAGCAA
CUCUCGAUAGCCAAGUAGGUUUAAGGCGAAAGACUUUAAUUUAUCACUACGAAAUCUUGAGAUCGGGCGUUAGACUCGCCCCCGCGAGAUUUUUUCCUCGAGCAA
CUCUCGAUAGCCAAGUUGGUUUAAGGCGCAAGACUUUAAUUUAUCACUACGAAAUCUUGAGAUCGGUCGUUCGACUCGCCCCCGAGAGAUUUUUUCCUCGAGCAA
CUCUCGAUAGCCAAGUUGGUUCAAGGCGCAAGACUUUAAUUUAUCACUACGAAAUCUUGAGAUCGGGCGUUCGACUCGCCCCCGGGAGAUUUUUUCCUCGAGCAA
CUCUCGAUAGCCAAGUUGGUUUAAGCCGCAAUACUUUAAUUUAUCACUACGAAAUCUUGAGAUCGGGCGUUCGACUCGCCCCCGGGAGAUUUUUUCCUCGAGCAA
CUCUCGAUAGCCAAGUUGGUUUAAGGCGCAAGACUUUAAUUUAUCACUACGAAAUAUUGAGAUCGGGCGUUCGACUCGACCCGGGGAGAUUUUUUCCUCGAGCAA
CUCUCGAUAGCCAAGUUGGGUUAAGGCGCAAGAUUUUAAUUUAUCACUACGAAAUCCUGAGAUAGGGCGUUCGACUCGUCCCCGGGACAUUUUUUCCUCGAGCAA
CUCUCGAUAGCCAAGUUGGGUUAAGGCGCAAGACUUUAAUUUAUCACUACGAAAUCUUGAGAUCGGGCGUUCGACUCGCCCCCGGGAGAUUUUUUCCUCGAGCAA
CUCUCGAUAGCCAAGUUGGUUUAAGGCGAAAGACUUUAAUUUAUCACUACGAAAUCUUGAGUUCGGGCGUUCGACUCGCCCCCGGGAGAUUUUUUCCUCGAGCAA
CUCUCGAUACCCAAGUUGGUUUAAUGCGCAAGACUUUAAUUUAUCACUACGAAAUCUUGAGAUCGGGCGUUCGACUCGCCCCCGGGAGCUUUUUUCCUCGAGCAA
